From PubChem BioAssay AID1963576 (National Center for Advancing Translational Sciences (NCATS), 2024)
Among all 46,000 compounds or so, about 60 (0.1%) were called active. Roughly 3% stayed inconclusive and do not appear here. The call rests on the fitted dose curve; in most records, active means well fitted inhibition curve with a large enough effect; inconclusive means small, poorly fitted or top-dose-only effect; inactive means no such curve, though single readings can be large or run the other way. The list shows a part of the results.

assay: Primary qHTS assay for Inhibitors of ovarian cancer metastasis using an organotypic tumor microenvironment (TME) model.; further: nearly all actives have a fitted effect of over 65% in size;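 on activity change, negative = inhibition: plate controls were DMSO wells for no effect and tomatine positive control wells for full effect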; settings: SKOV3ip1-GFP adhesion/invasion on 3D omental model, fluorescence; series mostly up to 45.8 µM; activity change, negative = inhibition: at the top concentration
Outline: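 qHTS, 4-pt dose (0.36-46 umol/L); SKOV3ip1-GFP, 1,200 cells/well, no FBS; primary omental fibroblast/mesothelial co-culture 48 h pre-grown; 2 h RT + 16 h 37 C; PBS wash, 4% PFA; GFP count 488/509 nm.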

Activity change, negative = inhibition, inactive:
Cc1ccccc1-c1noc(-c2cc(C(C)C)[nH]n2)n1 -8.91%
COc1ccccc1Cc1nc2ccccc2nc1SCC(=O)N1CCCc2ccccc21 5.64%
C[C@]12C=CC(=O)N[C@@H]1CC[C@H]1[C@H]3CC[C@@H](C(=O)Nc4cc(C(F)(F)F)ccc4C(F)(F)F)[C@@]3(C)CC[C@@H]12 -6.18%
Cc1cc(Nc2ccc(Cl)cc2)n2cnnc2n1 -0.13%
CC(=O)N1CCc2cc(S(=O)(=O)CCC(=O)N3CCN(c4ccccc4F)CC3)ccc21 4.75%
CCOc1ccccc1N1CC(c2nc3ccccc3n2CCOc2ccccc2OC)CC1=O (stereo unspecified) -6.85%
COc1ccc2c(c1)Cc1sc(NC(=O)c3ccc(Cl)cc3)nc1-2 -3.27%
Cc1ccc(-n2c(SCc3ccccc3C)nc3[nH]ncc3c2=O)cc1C -13.9%
N#C/C(=C\c1ccc(-c2ccc(Cl)c(C(=O)O)c2)o1)c1nc2ccccc2[nH]1 2.4%
O=C(NCc1ccccc1Cl)C(=O)NCC(c1cccs1)S(=O)(=O)c1ccccc1 (stereo unspecified) -5.85%
O=C(NCc1cccnc1)C1CCN(Cc2cc3ccccc3n2Cc2ccccc2)CC1 5.29%
CCOc1ccc(N(C(=O)c2ccc(OC)cc2)S(=O)(=O)c2ccc3c(c2)n(C)c(=O)n3C)cc1 -0.165%
Cc1ccccc1-c1noc(-c2ccc(N3CCCC3)c([N+](=O)[O-])c2)n1 10.6%
CC(=O)N1CCCc2ccc(NC(=O)c3ccc(C(F)(F)F)cc3)cc21 -8.98%
COC(=O)c1cc2oc(C)cc2n1Cc1ccc(C)cc1 -2.93%
Cc1cc(C)cc(NC(=O)CSc2nnc(CNC(=O)c3c(F)cccc3Cl)o2)c1 4.33%
CCN(CC)S(=O)(=O)c1ccc2c(c1)N(CC(=O)Nc1c(C)cc(C)cc1C)C(=O)CS2 20.4%
CCC(=O)C1=C(c2ccc(F)cc2)N(C(=O)CC)n2c(nnc2C2CCCCC2)S1 -18.5%
CCC(=O)OC1=CN(Cc2ccccc2)S(=O)(=O)c2ccccc21 1.32%
CC(C)c1ccc(NC(=O)CN2C=NS(=O)(=O)c3ccccc32)cc1 -8.2%
N#C/C(=C\c1c(Oc2ccc(F)cc2)nc2ccccn2c1=O)c1nc2ccccc2s1 2.08%
CCOc1ccc(CCNC(=O)Cn2nc(CC)n3c(cc4c(OC)cccc43)c2=O)cc1OCC -20.2%
CCc1ccc(CNC(=O)C2CCN(C(=O)c3ccc(-n4ccc5ccccc54)s3)CC2)cc1 -10.8%
O=C1CC(c2ccc(F)cc2)c2c(n3c(nc4ccccc43)[nH]c2=O)N1 (stereo unspecified) -4.25%
CCCOc1ccc(C(=O)Nc2sc3c(c2C(=O)OCC)CCCCC3)cc1 7.57%
Cc1oc(-c2cccc(Br)c2)nc1CN1CCC(C(=O)NCc2ccccc2)CC1 -0.279%
Cc1nc(-c2ccccc2)sc1-c1ccc(SCC(=O)Nc2ccccc2)nn1 -6.7%
O=C(CS(=O)(=O)c1nc(-c2ccc(Cl)cc2)cn1-c1ccccc1)Nc1cccc(Cl)c1 -20.4%
O=C(NCc1ccccc1Cl)c1cc(-c2ccccc2)n[nH]1 -7.07%
COCCn1c(CCC(=O)Nc2ccc(OC)c(OC)c2)nc2cccnc21 1.81%
CCc1ccc(NC(=O)N2CCN(c3nnc(C)c4c(C)n(-c5ccc(Cl)cc5)nc34)CC2)cc1 -1.48%
Cc1cc(C)cc(NC(=O)CSc2nccn2C2CCCC2)c1 2.17%
COc1cccc(C2C(C(N)=O)=C(C)Nc3nc(CCCO)nn32)c1 (stereo unspecified) 8.39%
COc1ccc(CN(C(=O)Nc2cc(C)ccc2C)C2CCN(C(C)=O)CC2)cc1 2.19%
CCOc1cccc(CC(=O)NCc2ccc3c(c2)CCN3C(=O)c2cccc(C)c2)c1OCC -8%
COc1cc(NS(=O)(=O)c2ccc(NC(=O)COc3ccc(Cl)cc3Cl)cc2)nc(OC)n1 -0.428%
COc1ccc2c(c1)c(=O)c(S(=O)(=O)c1ccc(F)cc1)cn2CC(=O)Nc1ccc(C)cc1C -6.06%
CCN1C(=O)c2ccccc2Sc2ccc(NC(=O)Cc3ccc(OC)c(OC)c3)cc21 -0.347%
c1ccc(Nc2c(-c3ccccc3)nc3ncccn23)cc1 19.1%
O=C(CCNS(=O)(=O)c1ccc(Br)s1)Nc1ccc(Br)cc1 -7.32%
Cc1ccc(CNCc2ccc3c(c2)n(C)c(=O)n3C)cc1 12.7%
CCOc1ccc2nc(N(Cc3cccnc3)C(=O)c3ccco3)sc2c1 -7.46%
O=C(c1cc(S(=O)(=O)N2CCCC2)c[nH]1)N1CCN(c2cccc(Cl)c2)CC1 -5.48%
CCC(CC)C(=O)N1CCc2cc(OC)c(OC)cc2C1COc1ccc2c(C)cc(=O)oc2c1 (stereo unspecified) 1.85%
O=C(NCc1ccccc1Cl)C(=O)NCC(c1ccc2c(c1)OCO2)N1CCOCC1 (stereo unspecified) 10.7%
COc1ccc(CNC(=O)c2cnc3sc4cc(OC)ccc4n3c2=O)cc1 6.21%
CCOc1ccc(NC(=O)CSc2nc(-c3ccccc3)c3cc(OCC)ccc3n2)cc1 8.25%
CCOc1ccccc1N(CC)C(=O)Cn1ncc2c1-c1ccccc1OC2 1.66%
Cc1cc(Cl)ccc1NC(=O)CCS(=O)(=O)c1ccc2c(c1)CC(C)N2C(=O)C1CC1 (stereo unspecified) -1.86%
COc1ccc(CNC(=O)CCS(=O)(=O)c2cc3c4c(c2)CCN4C(=O)CC3)cc1OC -2.46%
Cc1c(C(=O)N2CCCC2)oc2c1-c1nn(CC(=O)NCc3ccccc3F)cc1CC2 -16.4%
O=C(Nc1cc(Cl)ccc1O)c1cc(-c2ccc3c(c2)OCO3)on1 -6.21%
COc1ccc(C2C(C(=O)Nc3cccnc3)=C(C)Nc3nc(-c4ccc(OC)c(OC)c4)nn32)cc1 (stereo unspecified) 2.05%
Cc1ccc(S(=O)(=O)c2nnn3c2nc(N(C)Cc2ccccc2)c2cc(Cl)ccc23)cc1C -17.2%
COc1ccc(-c2nc(CSCC(=O)NCCc3ccc(OC)c(OC)c3)c(C)o2)cc1 13.8%
COc1ccccc1CNC(=O)c1cc2cccc3c2n1CCS3 6.25%
CC(C)NC(=O)C1=CC(c2ccc3c(c2)OCO3)=NS(=O)(=O)N1C 8.82%
CC1CCN(c2nc3ccccc3nc2SCC(=O)Nc2ccccc2C(C)C)CC1 -8.78%
CCCN1CCN(c2ncnc3sc(C(=O)Nc4ccc(OC(F)(F)F)cc4)c(C)c23)CC1 -28.1%
Cc1nnc(N2CCCC(C(=O)Nc3cc(F)ccc3F)C2)c2nn(-c3ccccc3)c(C)c12 (stereo unspecified) -8.41%
CCOc1ccc(CCNC(=O)c2cc3n(n2)CCCN(Cc2ccc(C)cc2)C3=O)cc1OCC -7.35%
Cc1cc(-c2ccc(C)c(S(=O)(=O)Nc3ccc(C)c(N(C)C)c3)c2)on1 -2.6%
O=C(NC1(C(F)(F)F)N=C(c2ccccc2)N(Cc2ccccc2)C1=O)c1ccc(F)cc1 (stereo unspecified) 7.42%
CCCCC(=O)OCc1cc(=O)n2nc(C3CC3)sc2n1 4.1%
CC(=O)c1ccc(NC(=O)Cn2c(=O)nc(-c3ccccc3)c3ccccc32)cc1 -7.72%
CC1CCN(S(=O)(=O)c2ccc3c(c2)N(CC(=O)N(C)Cc2ccccc2)C(=O)CO3)CC1 -3.53%
CCN(CC)c1cc(NC2CCCCC2)c2c3c(onc13)-c1ccccc1C2=O 1.23%
Cn1cnc(S(=O)(=O)N2CCC(C(=O)Nc3ccc(OC(F)(F)F)cc3)CC2)c1 -6.8%
O=C(CCCc1nc(-c2ccc(Cl)cc2)no1)NCc1ccco1 -2.57%
CCCCN1C(C(=O)c2ccccc2)=C(OC(=O)CC)c2ccccc2S1(=O)=O -19.7%
Cc1cc(C)c(NC(=O)Cn2nnc3sc4c(c3c2=O)CCC(C(C)(C)C)C4)c(C)c1 (stereo unspecified) 2.87%
O=C(c1ccc2c(c1)N(Cc1ccccc1)C(=O)c1ccccc1S2(=O)=O)N1CCC(Cc2ccccc2)CC1 20.9%
COc1cccc(CNC(=O)C2CCCN(c3nn4cc(-c5ccc(C)cc5)nc4s3)C2)c1 (stereo unspecified) -2.84%
Cc1ccccc1CN1C(=O)C(O)(c2c[nH]c3ccccc23)c2cc(Cl)ccc21 (stereo unspecified) -24%
O=c1c2sc3ccccc3c2n(Cc2cccc(Cl)c2)c(=O)n1Cc1ccc(F)cc1 2.99%
CCc1cc(C(=O)N2CCN(c3ccccc3)CC2)no1 23.7%
O=C(NCc1ccc(Cl)cc1)c1cc2cccc3c2n1CCS3 -1.25%
COc1ccc(CNC(=O)C2CCN(C(=O)N3CCOc4ccc(C)cc43)CC2)cc1 -0.914%

outcome, inactive:
COc1ccc(-c2nnc(SCC(=O)c3ccc([N+](=O)[O-])cc3)o2)cc1OC
Cc1cccn2c(=O)c3cc(C(=O)NC(C)c4ccccc4)c(=N)n(CCOCCO)c3nc12 (stereo unspecified)
CCOC(=O)c1cc(OC(=O)c2cccc(F)c2)n(-c2ccccc2)n1
CC(C)c1ccc(-c2noc(SCC(=O)N(C)c3ccc(F)cc3)n2)cc1
Cc1cccc(N2CCN(C(=O)CN3C(=O)COc4ccc(S(=O)(=O)N5CCCC5)cc43)CC2)c1C
Cc1oc(-c2cccc(Br)c2)nc1CSc1nc2ncccc2[nH]1
Cc1ccc(NC(=O)c2ccc(F)c(S(=O)(=O)NCCc3ccccc3)c2)cc1F
O=C(Cn1c2ncccc2c(=O)n1-c1ccccc1)NCc1ccccc1
COc1cccc(NC(=O)c2csc3c2CCCCC3)c1
COc1cccc(CNC(=O)Cc2c(C)c3cc4c(C)coc4cc3oc2=O)c1
CCCSc1ncc(Cl)c(C(=O)NCc2ccc(C)cc2)n1
CCOC(=O)c1c(C)[nH]c(CCC(=O)NCc2cc(Br)ccc2OC)c1C
CCc1nn2c(=O)c(S(=O)(=O)Nc3ccc(C)cc3C)c(C)nc2s1
CCOc1ccc(C(=O)c2cn(CC(=O)Nc3ccc(C)c(Cl)c3)c3ccc(OCC)cc3c2=O)cc1
COc1cc(NC(=O)COCc2cc(-c3ccc4c(c3)OCO4)on2)c(OC)cc1Cl
O=C(CS(=O)(=O)c1cccc2nsnc12)N1CCN(c2ccc(F)cc2)CC1
COc1cc(C2c3c(-c4ccccc4O)n[nH]c3C(=O)N2Cc2ccncc2)cc(OC)c1OC (stereo unspecified)
CC1CCCN(C(=O)c2ccc(CSc3nc4ccncc4n3Cc3ccccc3)cc2)C1 (stereo unspecified)
